Source: PubChem BioAssay AID504339 (National Center for Advancing Translational Sciences (NCATS), 2011)
The whole screen tested about 390,000 compounds, of which about 17,000 (4.4%) were called active. The shares of active, inactive and inconclusive entries below differ from those in the screen. Calls follow the shape of the dose curve; as a rule, active = well fitted inhibition curve with a large enough effect; inconclusive = small, poorly fitted or top-dose-only effect; inactive = no such curve, though single readings can be large or run the other way. Potencies beside an inconclusive call are fits to weak or partial responses and may not hold up.

Molecular target: Lysine-specific demethylase 4A (Homo sapiens) (UniProt O75164)
Chain of UniProt O75164 (O75164 whole entry, looked up, the tested form may be a part): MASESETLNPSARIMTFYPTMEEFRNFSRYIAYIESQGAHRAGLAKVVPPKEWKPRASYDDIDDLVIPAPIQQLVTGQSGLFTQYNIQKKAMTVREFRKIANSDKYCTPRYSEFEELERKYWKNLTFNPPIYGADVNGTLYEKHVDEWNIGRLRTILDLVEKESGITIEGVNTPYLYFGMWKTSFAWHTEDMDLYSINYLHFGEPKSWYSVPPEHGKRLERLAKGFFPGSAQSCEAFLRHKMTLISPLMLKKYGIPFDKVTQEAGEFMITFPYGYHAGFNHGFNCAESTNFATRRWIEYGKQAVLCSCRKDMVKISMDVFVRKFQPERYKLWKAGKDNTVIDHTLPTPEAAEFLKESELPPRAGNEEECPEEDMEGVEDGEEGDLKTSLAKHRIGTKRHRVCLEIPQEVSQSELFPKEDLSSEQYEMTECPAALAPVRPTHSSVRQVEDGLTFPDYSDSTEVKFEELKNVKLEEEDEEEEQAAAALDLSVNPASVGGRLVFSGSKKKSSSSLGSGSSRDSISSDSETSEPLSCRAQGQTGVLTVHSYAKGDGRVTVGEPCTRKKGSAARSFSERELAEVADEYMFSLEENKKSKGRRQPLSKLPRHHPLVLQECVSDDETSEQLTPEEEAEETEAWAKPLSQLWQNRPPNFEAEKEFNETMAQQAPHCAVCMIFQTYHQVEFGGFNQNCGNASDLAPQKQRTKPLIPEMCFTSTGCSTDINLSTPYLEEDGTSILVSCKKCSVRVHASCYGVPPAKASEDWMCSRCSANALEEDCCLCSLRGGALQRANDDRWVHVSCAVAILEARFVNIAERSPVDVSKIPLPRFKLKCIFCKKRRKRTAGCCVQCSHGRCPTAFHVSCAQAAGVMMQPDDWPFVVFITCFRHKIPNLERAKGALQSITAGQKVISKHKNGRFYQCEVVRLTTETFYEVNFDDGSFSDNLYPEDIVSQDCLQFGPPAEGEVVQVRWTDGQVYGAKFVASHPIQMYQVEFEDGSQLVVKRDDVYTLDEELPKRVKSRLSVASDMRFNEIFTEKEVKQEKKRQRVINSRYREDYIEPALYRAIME
Assay: qHTS Assay for Inhibitors of JMJD2A-Tudor Domain; also: nearly all actives have a fitted effect of over 50% in size
Conditions: AlphaScreen JMJD2A-Tudor / H3K4me3 peptide binding; activity change, negative = inhibition: at 114 µM (top of the series)
% is scaled to controls: 0 for no effect and ±100 for the full control effect; potency is read from the fitted curve at half-maximal effect; tags tell the direction and shape of the fitted curve.

Activity change, negative = inhibition, inactive:
Cc1ccc(OCCCN2C(=O)C(=O)c3cc(C)ccc32)cc1 -8.87%
O=C(O)c1ccccc1C(=O)NCC(O)c1ccccc1 (centres undefined) -4.05%
NS(=O)(=O)c1ccc(CCNC(=O)c2cccc(OC(F)F)c2)cc1 2.46%
O=C(NCCC1=CCCCC1)NC12CC3CC(CC(C3)C1)C2 -5.56%
O=C(CSc1nc2ccc(Cl)cc2[nH]1)NCCc1ccccc1 -2.76%
COc1ccc(NCC(=O)N/N=C/C2CCCCC2)cc1 -26.8%
Cc1ccc(NC(=O)CN2CCN(C(=O)C3CCCO3)CC2)c(C)c1 (centres undefined) 2.78%
CCCNC(=O)C1(CC2CC(c3ccccc3)=NO2)CCN(C(=O)c2cc(OCC)c(OCC)c(OCC)c2)CC1 (centres undefined) -12.3%

Potency, active:
COc1cccc(CNCc2ccc(OC)c3ccccc23)c1OC 3.16 µM
C=CCOc1c(Br)cc(CNn2cn[nH]c2=S)cc1OC 79.4 µM
C=CCOc1ccc(CNn2c(C)n[nH]c2=S)cc1OC 20 µM
Cn1c(/C=N/NC(=O)c2ccccc2)nc2ccccc21 89.1 µM
Clc1cccc(CN2CCC(Cc3ccccc3)CC2)c1 3.16 µM
O=C(NCCCn1ccnc1)Nc1cccc(Cl)c1 44.7 µM
COC(=O)c1cc2c(-c3ccccc3)c(C)c3ccccn3c-2c1C(=O)OC 44.7 µM

Potency, inconclusive:
Brc1ccc(C2C3=C(Nc4ncnn42)c2ccccc2OC3c2ccncc2)cc1 (centres undefined) 50.1 µM [inhibitor, partial curve, poor fit]
COc1ccc(Nc2ccc3cc(S(=O)(=O)N4CCCC4)ccc3n2)cc1OC 44.7 µM [inhibitor, partial curve]
Cc1ccc(Nc2nc(-c3c(C)n(C)n(-c4ccccc4)c3=O)c(C)s2)cc1 56.2 µM [inhibitor, partial curve]
Cc1ccc(C(C(=O)NCc2ccccc2)N(C(=O)c2csnn2)c2cccc3ccccc23)o1 (centres undefined) 89.1 µM [inhibitor, partial curve]
Cc1ccc2cccc(SCC(=O)NCC#N)c2n1 31.6 µM [inhibitor, partial curve]
COC(=O)NNC(=S)Nc1cc(OC)ccc1OC 89.1 µM [inhibitor, partial curve, poor fit]
CCOc1ccc(C2CC(c3cccc(OC)c3)n3nc(N)nc3N2)cc1 (centres undefined) 79.4 µM [inhibitor, partial curve]
Cc1ccc(Nc2nc(CSc3nnc(-c4cccnc4)n3-c3ccccc3F)cs2)cc1 2.82 µM [inhibitor, partial curve, poor fit]
CSCc1ccc(C(=O)N2CCCC(Nc3ccc(F)cc3)C2)o1 (centres undefined) 50.1 µM [inhibitor, partial curve]
C=CCN1C(=O)[C@@H]2Cc3c([nH]c4ccccc34)C(c3ccc(O)cc3)N2C1=S (some centres undefined) 56.2 µM [inhibitor, partial curve, poor fit]
CSc1nnc(-c2cc(Br)ccc2N=Cc2c(C)[nH]n(-c3ccccc3)c2=O)c(=O)[nH]1 39.8 µM [inhibitor, partial curve]
Cc1ccc(CNC(=O)c2cc(-c3ccccc3)n(Cc3cc(C)no3)n2)cc1 79.4 µM [inhibitor, single point]
C[C@H](NC(=O)c1nc[nH]c1C(=O)N1CCc2ccccc2C1)C(=O)OC(C)(C)C 79.4 µM [inhibitor, single point]
COc1ccc(Cn2c(-c3ccc(OC)c(O)c3)nc3ccccc32)cc1O 89.1 µM [inhibitor, partial curve, poor fit]
Cc1ccc(-c2nc(NC(=O)CSc3nnc4scc(-c5ccccc5)n34)ns2)cc1 14.1 µM [inhibitor, full curve]
O=C(C1CC1)N1CCc2cc(Br)cc(S(=O)(=O)NCCCN3CCCC3)c21 28.2 µM [inhibitor, partial curve, poor fit]
COc1ccc(N2C(=O)CC(C3CCCO3)C2=O)cc1 (centres undefined) 100 µM [inhibitor, single point]
COc1ccc2[nH]cc(CCNC(=O)Nc3cc(C)cc(C)c3)c2c1 50.1 µM [inhibitor, partial curve]
Cc1ccc(-c2ccc(C3C(C#N)=C(N)Oc4n[nH]c(C)c43)o2)cc1 (centres undefined) 44.7 µM [inhibitor, full curve]
O=C(CSc1nc2scc(-c3ccco3)c2c(=O)n1-c1ccccc1)NCC1CCCO1 (centres undefined) 20 µM [inhibitor, full curve, poor fit]
S=C(NCc1ccccn1)Nc1ccc(Cl)cc1 56.2 µM [inhibitor, partial curve]
CCN(c1ccccc1)S(=O)(=O)c1ccc(NC(=O)c2nc(S(C)(=O)=O)ncc2Cl)cc1 56.2 µM [inhibitor, partial curve]
CSc1nnc(NC(=O)c2nc(S(=O)(=O)Cc3cccc(C)c3)ncc2Cl)s1 12.6 µM [inhibitor, full curve, poor fit]
Cc1ccc(-c2nc(S(=O)(=O)c3ccc(C)cc3)c(N(C)C)o2)cc1 50.1 µM [inhibitor, partial curve]
Cc1ccc(/C=N/N2CCN(c3ccncc3S(=O)(=O)N3CCCCC3)CC2)cc1 56.2 µM [inhibitor, partial curve]
CC(C)CC(=O)Nc1nnc(S(=O)(=O)N2c3ccccc3CC2C)s1 (centres undefined) 20 µM [inhibitor, full curve]
CC(C)c1ccc(Nc2sc(C(=O)c3ccccc3)c(N)c2S(=O)(=O)c2ccccc2)cc1 56.2 µM [inhibitor, partial curve]
O=C(c1cc(Cl)ccc1Cl)N1CCc2ccccc21 39.8 µM [inhibitor, single point]
CCOC(=O)c1ccc(NS(=O)(=O)c2cc3c(cc2C)NC(=O)CO3)cc1 31.6 µM [inhibitor, full curve]
